The values below come from PubChem BioAssay (NCI).

“And” between values parts separate entries of the source, which are not always exact repeats. Equal values may be shown once.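 Five compound concentrations were applied to cells in 96-well plates for 48 hours; endpoints were derived by simple linear interpolation of the resulting dose-response curve. GI50 is the concentration that inhibits growth by half. At the TGI there is no net growth.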

This assay deals with NCI-H322M lung. In words: NCI anticancer screen, dose series, 48 h.
On to `COc1ccc(/C=C2/C(=O)N(C(=O)c3ccccc3O)N=C2C)cc1OC`, for which the TGI was greater than 100 µM.

With `NS(=O)(=O)c1ccc(NNC(=O)c2cccc3c(=O)c4ccccc4[nH]c23)cc1`, the TGI is greater than 100 µM.

Turning to `O=C(Nc1cccc(Cl)c1)Nc1cccc(Cl)c1`, the GI50 is greater than 100 µM and the TGI was greater than 100 µM.

Turning to `CC1C2Cc3ccc(O)cc3C1(C)CCN2C` (stereo unspecified), the TGI is greater than 100 µM.

The molecule `CCN(CC)CCN1c2ccccc2Sc2ccc3ccccc3c21` gave a TGI of 23.1 µM.

On to `C#CCNC(=O)CCC(N)C(=O)O` (stereo unspecified), for which the TGI is greater than 100 µM.

As to `CCN1CCC[C@H]1c1cc(O)c2c(c1OC)C[C@H]1C[C@H]3[C@H](N)C(=O)C(C(N)=O)=C(O)[C@@]3(O)C(=O)C1=C2O`, the GI50 is 0.065 µM and the TGI worked out at 7.62 µM.

The molecule `NC(CCCCCP(=O)(O)O)C(=O)O` (stereo unspecified) registered a TGI greater than 100 µM.

Regarding `C=C1C(=O)OC2/C=C(\C)CC/C=C(/C)CC(OC(=O)/C(=C/CO)CO)C12` (stereo unspecified), the TGI is greater than 100 µM.

As for `O=C(CCCn1c2c(sc3ncccc32)c(=O)n2nnc(-c3ccccc3)c12)NCCc1cnc[nH]1`, the GI50 was 14.6 µM and the TGI came out at 36.3 µM.

On to `O=C(c1cc(=O)c2ccc(O)cc2o1)c1ccc(Cl)cc1Cl`, for which the TGI is greater than 100 µM.

`O=C(Oc1cccnc1)c1ccccc1Nc1ccnc(C(F)(F)F)c1`: the GI50 was 4.33 µM and the TGI was 29.1 µM.

The molecule `CCc1cccc(C(C)CC)c1N=C(NC(=O)c1ccccc1C(=O)NC(=Nc1c(CC)cccc1C(C)CC)SC)SC` (stereo unspecified) gave a TGI greater than 100 µM.

In the case of `C/C=C/C=N/N(c1nnc(-c2ccccc2)c(-c2ccccc2)n1)S(=O)(=O)c1ccc(C)cc1`, the TGI stood at 33.9 µM.

In the case of `Oc1nc(NCCc2ccccc2)sc1/C=C1\C=Nc2ncccc21`, the GI50 was 2.09 µM and 2.9 µM; the TGI is 13.4 µM and 77.4 µM.

As to `CC(C)=CC/C=C(/C)[C@H]1CC[C@]2(C)[C@@H]1CC[C@@H]1[C@@]3(C)CCC(=O)NC(C)(C)[C@@H]3CC[C@]12C`, the GI50 is 35.4 µM and the TGI was greater than 100 µM.

For the molecule `OC(c1cc(C(O)(C(F)(F)F)C(F)(F)F)ncn1)(C(F)(F)F)C(F)(F)F`, the TGI is greater than 10 µM.

For the molecule `Clc1ccc(-c2nc3c(-c4ccc(Cl)cc4)nc(-c4ccccc4)cn3c2-c2ccc(Cl)cc2)cc1`, the GI50 was greater than 50 µM and the TGI is greater than 50 µM.

Molecule `COc1cc2cc(c1Cl)N(C)C(=O)CC(OC(=O)C(C)C)C1(C)OC1C(C)C1CC(O)(NC(=O)O1)C(OC)/C=C/C=C(C)C2` (stereo unspecified) showed a TGI of 26.1 µM.

The molecule `Cc1ccc(SSCCCS(=O)O)cc1` came in with a TGI greater than 100 µM.

Regarding `O=C(N[C@H](c1ccc(Cl)c(Cl)c1)C1CNC1)c1ccc2cnccc2c1`, the GI50 is 7.2 µM and the TGI worked out at 21.1 µM.

`C=C1C(=O)OC2CCCCC3OC3C12` (stereo unspecified) gave a TGI of 42.7 µM.

`Cc1ccc(-n2c3c(c4c(CN5CCCCC5)c(O)ccc42)CCc2ccccc2C3=O)cc1`: the GI50 is greater than 100 µM and the TGI was greater than 100 µM.

With `Cn1cc(-c2csc(-c3c[nH]c4ncccc34)n2)c2cc(Br)cnc21`, the GI50 was greater than 100 µM and the TGI is greater than 100 µM.

As for `CC(=O)OCC1C(C(C)OC(C)=O)CCC2C1CCC1(C)C(OC(C)=O)CCC21` (stereo unspecified), the TGI was determined as 33.9 µM.

In turn, `COc1ccc(/C=C/c2cc(OC)c(O[Si](C)(C)C(C)(C)C)c(OC)c2)cc1` came in with a TGI greater than 100 µM.

With `COc1ccc(CN2c3ccccc3Sc3ccccc32)cc1F`, the GI50 is 0.623 µM and the TGI is greater than 100 µM.

Molecule `CCCS(=O)(=O)O` registered a TGI greater than 100 µM.

`CCOC(=O)C(SCCO)C(C(=O)OCC)n1ccc(N)nc1=O` (stereo unspecified): the TGI is greater than 100 µM.

As for `CCCc1cc(=O)oc2c(C(=O)CC(C)C)c(O)c(CC=C(C)C)c(O)c12`, the GI50 is 13.4 µM and the TGI is greater than 50 µM.

Consider `CCOP(=O)(CCP(=O)(OCC)OCC)OCC.C[CH2][Sn]([Cl])([Cl])[CH2]C`, for which the GI50 was greater than 91.2 µM and the TGI was greater than 100 µM.

On to `CSC1=N/C(=C\c2cccs2)C(=O)N1CN1CCOCC1`, for which the TGI was greater than 100 µM.

Take `CC(C)(O)[C@@H]1CCC(C)([C@H]2[C@@H](O)CC3(C)C4CC(OC5OC(CO)C(O)C(O)C5O)C5C(C)(C)[C@@H](OC6OCC(O)C(O)C6O)CC[C@@]56C[C@@]46CC[C@]23C)O1` (stereo partly specified): the TGI was greater than 100 µM.

In turn, `Cc1c2ccccc2c(C)c2c3c(ccc12)C(=O)C=CC3=O` had a TGI greater than 100 µM.

`C[N+](C)(C)CCOP(=O)(O)OP(=O)([O-])OCC1CCC(n2ccc(N)nc2=O)O1` (stereo unspecified) gave a TGI greater than 100 µM.

Regarding `Cc1ccc2nc3c(Cl)cc(=O)cc-3sc2c1`, the TGI is greater than 100 µM.

`CC1=NN(c2nc(N)nc(CS(C)(=O)=O)n2)C(C)(C)C1`: the TGI is greater than 100 µM.

On to `COC(=O)C12CCC(C(=O)OC)(Cc3c(c4ccccc4n3S(=O)(=O)c3ccccc3)C1)C2=O` (stereo unspecified), for which the TGI was greater than 100 µM.

Turning to `CCN(CC)CCNc1ccc([N+](=O)[O-])c2nc3ccccc3c(N)c12`, the TGI is 1.74 µM.

`COc1ccc(-c2cc(-c3ccccc3)n(C3OC(COC(C)=O)C(OC(C)=O)C(OC(C)=O)C3OC(C)=O)c(=S)c2C#N)cc1` (stereo unspecified) showed a TGI of 27.4 µM.

Regarding `COc1cc(Cn2c3c(c4c(CN(C)C)c(O)ccc42)C(=O)c2ccccc2C3=O)cc(OC)c1`, the TGI was greater than 100 µM.

Take `CC1=C(C)C(=O)OC(C(C)(O)C2(O)CCC3(O)C4CC(Cl)C5(O)C(O)C=CC(=O)C5(C)C4CCC32C)C1` (stereo unspecified): the TGI was greater than 100 µM.

Molecule `Clc1ccccc1C(n1cc(Br)cn1)n1cc(Br)cn1` gave a TGI of 19 µM.

For `Nc1[nH]c(=O)nc2sc3c(c12)CCCC3`, the TGI was greater than 100 µM.

In the case of `NC(=S)N/N=C(/CC(=O)c1ccc([N+](=O)[O-])cc1)C(=O)Nc1ncc([N+](=O)[O-])s1`, the TGI was greater than 100 µM.

Regarding `O=C1NC(=NCC(CO)c2ccccc2)S/C1=C\c1ccc2ncccc2c1` (stereo unspecified), the GI50 was 17.1 µM and the TGI is greater than 25 µM.

For `CSc1ccc2c(c1)c(CCN)c(C)n2Cc1ccc(Cl)c(Cl)c1`, the GI50 is 1.46 µM and the TGI is 2.86 µM.

Regarding `COc1cc2c(cc1OC)C(CCc1ccc(Cl)cc1)N(C)CC2` (stereo unspecified), the GI50 was 37.1 µM and the TGI is greater than 100 µM.

Take `CCCOc1ccc(/C(Cl)=C(\C=O)c2ccc(OC)c(OC)c2)cc1OCCC`: the TGI was greater than 100 µM.

In turn, `CN(C)c1nc(N(C)C)nc(N(C)CN(C)c2ccccc2)n1` displayed a TGI greater than 100 µM.

In turn, `NC(=O)c1cnc2sc3ccccc3n2c1=O` registered a TGI greater than 100 µM.

As for `Cc1cccc(CN(C)c2ccc(CO)c(Cl)c2)c1`, the GI50 is 10.5 µM and the TGI is 62.3 µM.

As to `C=CCC(C(=O)OC)C1(C(=O)OC)c2[nH]c3ccccc3c2CCN1Cc1ccccc1` (stereo unspecified), the TGI is greater than 100 µM.

In turn, `C=CCn1c2ccccc2c2c(C)c3cnccc3c(C)c21` registered a TGI greater than 125 µM.

Consider `CCCNc1nc(N(C)O)nc(N(C)O)n1`, for which the GI50 was 0.968 µM and the TGI was greater than 100 µM.

Regarding `COc1cc(CNC(=O)/C=C/C=C/c2ccc3c(c2)OCO3)ccc1OCc1cn(-c2ccc(Cl)c(Cl)c2)nn1`, the GI50 was 2.94 µM and the TGI came out at 11.7 µM.

As for `Fc1ccc(-c2nc(-c3nc4ccc(Cl)cc4[nH]3)cc3c2[nH]c2ccccc23)cc1`, the GI50 is 3.54 µM and the TGI was determined as 18.6 µM.

As for `COc1ccc(/C=C/C(=O)c2sc(N)nc2C)cc1`, the TGI is greater than 100 µM.

`N#CC12COC3(CCCCC3C1(C#N)C#N)OC2=N` (stereo unspecified) gave a TGI of 76.5 µM.

As to `CCCCCCN(CCCCCC)CCCNc1nccc2ccccc12`, the GI50 was 3.49 µM and the TGI worked out at 14.1 µM.
